Measured values published in the supplement of paper PMC4967469.
pIC50: −log10 of the molar value. Lines with a small IC50 respond at low doses; where the fit passes the top or lowest dose, that dose stands as a limit. AUC sums up the same curve from the lowest dose to the 256-fold higher top dose; values near 1 show little effect.

Compound: Cn1c(=O)n(-c2ccc(C(C)(C)C#N)cc2)c2c3cc(-c4cnc5ccccc5c4)ccc3ncc21 [NVP-BEZ235]
Assay: Viability of human cancer cell lines after 72 h of drug (GDSC screen)
Method: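 Human cancer cell lines in 384-well plates, medium with 10% serum, drug for 72 h over a 256-fold dose range (nine 2-fold or five 4-fold steps up to the top dose). Adherent lines were fixed and stained with the nucleic acid dye Syto60, suspension lines read with resazurin; signal relative to control wells, capped at 0 and 100%. One two-parameter sigmoid per drug and line, fitted in a mixed model over all curves with the slope shared within a line.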

Work on “EVSA-T (breast, adherent, top dose 0.25 µM)” yielded an AUC of 0.536 and a pIC50 of 7.71.

In the case of “EW-1 (Ewing sarcoma, semi-adherent, top dose 0.25 µM)”, the AUC was 0.776 and the pIC50 was 7.04.

“EW-3 (Ewing sarcoma, adherent, top dose 0.25 µM)” showed an AUC of 0.804 and a pIC50 of 6.83.

In the case of “EW-7 (Ewing sarcoma, semi-adherent, top dose 0.25 µM)”, the AUC was 0.612 and the pIC50 was 7.52.

Cell Line “EW-11 (Ewing sarcoma, adherent, top dose 0.25 µM)” has an AUC of 0.749 and a pIC50 of 6.99.

In the case of “EW-13 (Ewing sarcoma, suspension, top dose 0.25 µM)”, the AUC was 0.685 and the pIC50 was 7.26.

“EW-16 (Ewing sarcoma, adherent, top dose 0.25 µM)” showed an AUC of 0.514 and a pIC50 of 7.77.

With “EW-18 (Ewing sarcoma, suspension, top dose 0.25 µM)” the AUC was 0.584 and the pIC50 was 7.57.

Work on “EW-22 (Ewing sarcoma, adherent, top dose 0.25 µM)” yielded an AUC of 0.673.

“EW-24 (Ewing sarcoma, semi-adherent, top dose 0.25 µM)” gave an AUC of 0.878 and a pIC50 of 6.70.

“EoL-1-cell (haematopoietic neoplasm, suspension, top dose 0.25 µM)” showed an AUC of 0.669 and a pIC50 of 7.36.

Cell Line “FADU (head and neck, adherent, top dose 0.25 µM)” has an AUC of 0.918 and a pIC50 of under 6.60.

For “FLO-1 (oesophagus, adherent, top dose 0.25 µM)”, the AUC was 0.657 and the pIC50 was 7.29.

In the case of “FTC-133 (thyroid, adherent, top dose 0.25 µM)”, the AUC was 0.572.

“FU97 (stomach, adherent, top dose 0.25 µM)” gave an AUC of 0.657 and a pIC50 of 7.36.

“FU-OV-1 (ovary, adherent, top dose 0.25 µM)” showed an AUC of 0.856 and a pIC50 of under 6.60.

Cell Line “Farage (B-cell lymphoma, suspension, top dose 0.25 µM)” has an AUC of 0.519 and a pIC50 of 7.76.

In the case of “G-292 Clone A141B1 (osteosarcoma, adherent, top dose 0.25 µM)”, the AUC was 0.77 and the pIC50 was 6.80.

Cell Line “G-361 (melanoma, adherent, top dose 0.25 µM)” has an AUC of 0.747 and a pIC50 of 7.11.

Work on “G-401 (kidney, adherent, top dose 0.25 µM)” yielded an AUC of 0.663 and a pIC50 of 7.33.

“G-402 (soft tissue, adherent, top dose 0.25 µM)” showed an AUC of 0.577 and a pIC50 of 7.57.

Cell Line “GA-10 (Burkitt lymphoma, suspension, top dose 0.25 µM)” has an AUC of 0.499 and a pIC50 of 7.81.

With “GAK (melanoma, adherent, top dose 0.25 µM)” the AUC was 0.776 and the pIC50 was 7.03.

In the case of “GAMG (glioma, adherent, top dose 0.25 µM)”, the AUC was 0.536 and the pIC50 was 7.71.

For “GB-1 (glioma, adherent, top dose 0.25 µM)”, the AUC was 0.656 and the pIC50 was 7.34.

“GCIY (stomach, adherent, top dose 0.25 µM)” gave an AUC of 0.694 and a pIC50 of 7.23.

“GDM-1 (acute myeloid leukaemia, suspension, top dose 0.25 µM)” gave an AUC of 0.941 and a pIC50 of under 6.60.

Work on “GI-1 (glioma, adherent, top dose 0.25 µM)” yielded an AUC of 0.681 and a pIC50 of 7.31.

Work on “GI-ME-N (neuroblastoma, adherent, top dose 0.25 µM)” yielded an AUC of 0.59 and a pIC50 of 7.52.

In the case of “GMS-10 (glioma, adherent, top dose 0.25 µM)”, the AUC was 0.835 and the pIC50 was 6.79.

Cell Line “GOTO (neuroblastoma, adherent, top dose 0.25 µM)” has an AUC of 0.861 and a pIC50 of under 6.60.

“GR-ST (lymphoblastic leukaemia, suspension, top dose 0.25 µM)” gave an AUC of 0.7 and a pIC50 of 7.19.

“GRANTA-519 (B-cell lymphoma, suspension, top dose 0.25 µM)” was tested, and the AUC was 0.563 and the pIC50 was 7.64.

“GT3TKB (stomach, adherent, top dose 2 µM)” showed an AUC of 0.421 and a pIC50 of 7.11.

H4 (glioma, adherent, top dose 0.25 µM) showed an AUC of 0.481 and a pIC50 of 7.86.

In the case of “H9 (lymphoid neoplasm, suspension, top dose 0.25 µM)”, the AUC was 0.828 and the pIC50 was 6.93.

Work on “H290 (mesothelioma, adherent, top dose 0.25 µM)” yielded an AUC of 0.49 and a pIC50 of 7.83.

In the case of “H513 (mesothelioma, semi-adherent, top dose 0.25 µM)”, the AUC was 0.785 and the pIC50 was 6.88.

Cell Line “H2369 (mesothelioma, adherent, top dose 0.25 µM)” has an AUC of 0.696 and a pIC50 of 7.24.

“H2373 (mesothelioma, adherent, top dose 0.25 µM)” gave an AUC of 0.471 and a pIC50 of 7.89.

“H2461 (mesothelioma, adherent, top dose 0.25 µM)” gave an AUC of 0.821 and a pIC50 of 6.71.

For “H2591 (mesothelioma, adherent, top dose 2 µM)”, the AUC was 0.284 and the pIC50 was 7.60.

Cell Line “H2595 (mesothelioma, adherent, top dose 0.25 µM)” has an AUC of 0.661 and a pIC50 of 7.28.

In the case of “H2731 (mesothelioma, adherent, top dose 0.25 µM)”, the AUC was 0.803 and the pIC50 was 6.84.

“H2795 (mesothelioma, adherent, top dose 0.25 µM)” gave an AUC of 0.706 and a pIC50 of 7.23.

For “H2869 (mesothelioma, adherent, top dose 0.25 µM)”, the AUC was 0.795 and the pIC50 was 6.83.

“H3118 (head and neck, adherent, top dose 0.25 µM)” showed an AUC of 0.701 and a pIC50 of 7.21.

“H3255 (lung adenocarcinoma, adherent, top dose 0.25 µM)” gave an AUC of 0.709 and a pIC50 of 7.16.

“H-EMC-SS (chondrosarcoma, adherent, top dose 0.25 µM)” was tested, and the AUC was 0.754 and the pIC50 was 6.97.

With “HA7-RCC (kidney, adherent, top dose 0.25 µM)” the AUC was 0.588 and the pIC50 was 7.55.

“HAL-01 (lymphoblastic leukaemia, suspension, top dose 0.25 µM)” was tested, and the AUC was 0.585 and the pIC50 was 7.59.

Work on “HARA (lung squamous cell carcinoma, adherent, top dose 0.25 µM)” yielded an AUC of 0.75 and a pIC50 of 7.03.

“HC-1 (hairy cell leukaemia, suspension, top dose 0.25 µM)” showed an AUC of 0.866 and a pIC50 of 6.68.

Work on “HCC38 (breast, adherent, top dose 0.25 µM)” yielded an AUC of 0.855 and a pIC50 of 6.65.

“HCC202 (breast, adherent, top dose 0.25 µM)” gave an AUC of 0.807 and a pIC50 of 6.71.

For “HCC1143 (breast, adherent, top dose 0.25 µM)”, the AUC was 0.806 and the pIC50 was 6.71.

“HCC1187 (breast, suspension, top dose 0.25 µM)” showed an AUC of 0.886 and a pIC50 of under 6.60.

“HCC1395 (breast, adherent, top dose 0.25 µM)” showed an AUC of 0.803 and a pIC50 of 6.81.

Work on “HCC1419 (breast, adherent, top dose 0.25 µM)” yielded an AUC of 0.637 and a pIC50 of 7.36.

In the case of “HCC1428 (breast, adherent, top dose 0.25 µM)”, the AUC was 0.827 and the pIC50 was 6.76.

“HCC1500 (breast, adherent, top dose 0.25 µM)” showed an AUC of 0.705 and a pIC50 of 7.22.

Cell Line “HCC1569 (breast, adherent, top dose 0.25 µM)” has an AUC of 0.805 and a pIC50 of 6.74.

“HCC1806 (breast, adherent, top dose 0.25 µM)” was tested, and the AUC was 0.796 and the pIC50 was 6.97.

Cell Line “HCC1937 (breast, adherent, top dose 0.25 µM)” has an AUC of 0.846 and a pIC50 of 6.65.

For “HCC1954 (breast, adherent, top dose 0.25 µM)”, the AUC was 0.893 and the pIC50 was under 6.60.

Work on “HCC2157 (breast, suspension, top dose 0.25 µM)” yielded an AUC of 0.654 and a pIC50 of 7.37.

“HCC2218 (breast, suspension, top dose 0.25 µM)” was tested, and the AUC was 0.882 and the pIC50 was under 6.60.

In the case of “HCC-15 (lung squamous cell carcinoma, adherent, top dose 0.25 µM)”, the AUC was 0.675 and the pIC50 was 7.25.

Cell Line “HCC-44 (lung adenocarcinoma, adherent, top dose 2 µM)” has an AUC of 0.203 and a pIC50 of 7.77.

With “HCC-56 (large intestine, adherent, top dose 0.25 µM)” the AUC was 0.84 and the pIC50 was 6.75.

With “HCC-78 (lung adenocarcinoma, adherent, top dose 0.25 µM)” the AUC was 0.73 and the pIC50 was 7.09.

With “HCC-366 (non-small cell lung carcinoma, adherent, top dose 0.25 µM)” the AUC was 0.906 and the pIC50 was under 6.60.

“HCC-827 (lung adenocarcinoma, adherent, top dose 0.25 µM)” gave an AUC of 0.79 and a pIC50 of 6.88.

For “HCT-15 (large intestine, adherent, top dose 0.25 µM)”, the AUC was 0.425 and the pIC50 was 8.02.

“HCT-116 (large intestine, adherent, top dose 0.25 µM)” gave an AUC of 0.822.

Work on “HD-MY-Z (Hodgkin lymphoma, adherent, top dose 0.25 µM)” yielded an AUC of 0.678 and a pIC50 of 7.31.

“HDLM-2 (Hodgkin lymphoma, suspension, top dose 0.25 µM)” gave an AUC of 0.843 and a pIC50 of 6.76.

“HDQ-P1 (breast, adherent, top dose 0.25 µM)” gave an AUC of 0.837 and a pIC50 of 6.66.

Work on “HEC-1 (endometrium, adherent, top dose 0.25 µM)” yielded an AUC of 0.718 and a pIC50 of 7.20.

With “HGC-27 (stomach, adherent, top dose 0.25 µM)” the AUC was 0.543 and the pIC50 was 7.70.

“HH (T-cell leukaemia, suspension, top dose 0.25 µM)” gave an AUC of 0.647 and a pIC50 of 7.34.
